Experimental data taken from the supplement of paper PMC12217912.
This is one part of the list. Sequences were assembled here from the parent chain. Inactive controls read about 0.05.

B1: TEV protease; numbered along this chain (parent)
chain: MGESLFKGPRDYNPISSSICHLTNESDGHTTSLYGIGFGPFIITNKHLFRRNNGTLVVQSLHGVFKVKDTTTLQQHLVDGRDMIIIRMPKDFPPFPQKLKFREPQREERICLVTTNFQTKSMSSMVSDTSCTFPSGDGIFWKHWIQTKDGQCGSPLVSTRDGFIVGIHSASNFTNTNNYFTSVPKNFMELLTNQEAQQWVSGWRLNADSVLWGGHKVFMVKPEEPFQPVKEATQL

Variants of: B1
Assay: raw area under fraction-flipped curve 0-4 h after induction (AUC4h, not background-subtracted), DNA-recorder readout of cleavage of the substrate (dimensionless); higher = more cleavage of the substrate by the protease variant
Conditions: temperature: 34 °C; time window: 0-4 h after rhamnose induction
Description: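 In vivo DNA recorder in E. coli TOP10(DE3) ΔrhaA at 34 °C. Each TEVp single-site mutant (parent TEVp 0) is paired with a single-site variant of the 7-mer TEVs (canonical ENLYFQ|S). The substrate sits between flexible linkers in a Bxb1-sfGFP-TEVs-SsrA fusion, so cleavage stabilises Bxb1 and speeds flipping of a recombination array, read by NGS. The value is the raw area under the fraction-flipped curve over 0-4 h after rhamnose induction (AUC4h), with ≥20 reads per time point. It is not background-subtracted; inactive controls average about 0.047.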
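Further: Bxb1 expression induced with 0.2% (w/v) L-rhamnose at OD600 near 0.5, cultures sampled hourly, flipped fraction per protease–substrate barcode pair counted by paired-end Illumina sequencing.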

Row | Variant | area with substrate EALYFQS | area with substrate ECLYFQS | area with substrate EDLYFQS | area with substrate EFLYFQS | area with substrate EHLYFQS | area with substrate EILYFQS | area with substrate EKLYFQS | area with substrate ELLYFQS | area with substrate EMLYFQS | area with substrate EPLYFQS | area with substrate EQLYFQS | area with substrate ERLYFQS | area with substrate ESLYFQS | area with substrate ETLYFQS | area with substrate EVLYFQS | area with substrate EYLYFQS | area with substrate EELYFQS | area with substrate EGLYFQS | area with substrate EWLYFQS
1 | N13A | 0.111 | 0.116 | 0.121 | 0.131 | 0.0949 | 0.0788 | 0.104 | 0.0937 | 0.0997 | 0.125 | 0.118 | 0.0898 | 0.103 | 0.0941 | 0.0989 | 0.0978 |  |  | 
2 | N13D | 0.146 | 0.0879 | 0.0957 |  |  | 0.0824 | 0.112 | 0.0952 | 0.0972 |  | 0.135 | 0.122 | 0.0766 |  | 0.0997 |  | 0.108 | 0.0901 | 
3 | P14R | 0.137 |  | 0.0824 | 0.117 | 0.12 |  | 0.172 | 0.111 |  | 0.112 | 0.124 | 0.107 | 0.112 |  |  |  | 0.115 | 0.0898 | 0.103
4 | P14S | 0.104 | 0.0992 | 0.0827 | 0.114 | 0.108 |  | 0.12 |  | 0.152 | 0.111 | 0.126 | 0.103 | 0.0931 | 0.107 | 0.0971 | 0.0651 |  | 0.0846 | 0.106
5 | Y12D | 0.11 | 0.127 |  | 0.0967 |  | 0.097 | 0.0929 | 0.106 |  |  | 0.108 | 0.102 | 0.0932 | 0.134 | 0.0924 | 0.0935 |  | 0.0983 | 0.103
6 | I15Y | 0.105 | 0.0931 |  |  | 0.108 | 0.0993 | 0.0932 | 0.0824 | 0.101 | 0.0784 | 0.134 | 0.105 | 0.115 |  | 0.0856 |  | 0.124 | 0.0936 | 0.0642
7 | I15A | 0.0901 |  | 0.126 |  |  | 0.103 | 0.0964 | 0.0876 | 0.0764 | 0.0982 | 0.116 | 0.108 | 0.094 |  | 0.0847 | 0.109 | 0.0761 | 0.0848 | 0.0974
8 | I15W | 0.108 | 0.0464 |  |  | 0.0993 | 0.105 | 0.099 |  | 0.101 |  | 0.095 | 0.0723 | 0.0862 | 0.0706 | 0.0855 | 0.105 | 0.11 | 0.0732 | 0.0916
9 | S17L | 0.128 | 0.0923 | 0.128 |  | 0.118 |  | 0.103 |  | 0.103 | 0.109 | 0.128 | 0.0974 | 0.131 | 0.119 |  |  | 0.116 | 0.0818 | 0.0982
10 | S17E | 0.124 | 0.103 | 0.142 | 0.114 | 0.0926 | 0.102 | 0.114 |  |  | 0.115 | 0.136 | 0.104 | 0.107 | 0.126 | 0.0989 | 0.128 | 0.11 | 0.107 | 0.0928
11 | S17M | 0.129 | 0.0952 | 0.0477 | 0.141 | 0.0703 | 0.0828 | 0.108 | 0.0949 |  | 0.146 | 0.112 | 0.109 | 0.0917 | 0.103 | 0.0969 |  | 0.125 | 0.121 | 0.117
12 | S17H | 0.13 | 0.111 | 0.137 |  | 0.13 | 0.112 | 0.129 | 0.0524 | 0.138 | 0.133 | 0.131 | 0.0877 | 0.133 | 0.111 | 0.0968 | 0.0916 | 0.179 | 0.0821 | 0.107
13 | S17N | 0.122 | 0.0974 | 0.136 | 0.0914 | 0.118 | 0.105 |  |  | 0.118 | 0.135 | 0.123 | 0.0986 | 0.135 |  |  |  | 0.132 | 0.113 | 0.0948
14 | S18I | 0.139 |  |  |  | 0.12 |  | 0.0676 | 0.0837 | 0.103 | 0.111 | 0.0884 | 0.0079 | 0.113 |  | 0.0937 |  | 0.0972 | 0.0625 | 
15 | S18L | 0.0418 | 0.0907 | 0.0965 | 0.0927 | 0.0961 | 0.0876 | 0.0944 | 0.0968 | 0.16 | 0.123 | 0.107 | 0.0977 | 0.103 | 0.102 | 0.0831 |  | 0.0985 | 0.0853 | 
16 | D11M | 0.0867 | 0.0826 | 0.0708 |  | 0.0574 | 0.0665 | 0.0667 |  | 0.0679 | 0.0735 | 0.0614 | 0.0771 | 0.0643 | 0.0429 | 0.0708 | 0.0647 | 0.071 | 0.0111 | 
17 | G2E | 0.103 | 0.11 | 0.103 |  |  | 0.117 |  | 0.104 | 0.104 | 0.117 | 0.102 |  | 0.077 |  | 0.0871 |  | 0.102 | 0.0769 | 0.0922
18 | C20D | 0.0412 | 0.0405 | 0.0459 |  | 0.038 | 0.0428 |  | 0.0444 | 0.0452 | 0.0425 |  |  | 0.0423 |  | 0.0449 | 0.0401 | 0.0403 | 0.0444 | 0.0378
19 | G8R | 0.12 |  |  |  |  | 0.0217 |  |  | 0.116 |  |  |  |  |  |  |  |  |  | 
20 | I19F | 0.0846 | 0.0837 |  |  | 0.0694 | 0.0681 | 0.0755 | 0.0801 | 0.0775 | 0.0886 | 0.0858 | 0.0724 | 0.0906 | 0.0691 | 0.0588 |  | 0.0915 | 0.0571 | 0.0611
21 | I19L | 0.124 | 0.116 | 0.114 | 0.123 | 0.123 | 0.102 | 0.135 | 0.122 | 0.134 | 0.154 | 0.14 | 0.114 | 0.0976 | 0.128 | 0.0972 |  | 0.172 | 0.123 | 0.112
22 | E3S | 0.135 | 0.129 | 0.179 | 0.1 | 0.122 | 0.141 | 0.112 |  |  | 0.136 | 0.137 | 0.111 | 0.154 |  | 0.149 |  | 0.188 | 0.127 | 
23 | K7Q | 0.144 | 0.0775 |  | 0.0932 |  | 0.0966 | 0.0894 |  | 0.0841 | 0.138 | 0.111 | 0.0981 | 0.0425 |  | 0.105 |  |  | 0.105 | 
24 | P9W | 0.129 | 0.0861 | 0.117 |  | 0.0997 | 0.0912 |  | 0.1 | 0.133 |  | 0.127 | 0.0988 | 0.111 |  |  | 0.111 | 0.127 |  | 
25 | P9M | 0.0937 | 0.101 | 0.139 | 0.109 |  |  | 0.112 | 0.113 | 0.127 | 0.126 | 0.147 |  | 0.107 |  | 0.0046 |  |  |  | 
